Laboratory results from the supplement of paper PMC9174493.
Some of the results follow. Single values of this set are uncertain. Values with irradiation are relative to irradiated vehicle.

The compounds below were run on A549-Dual (assay: NF-kB reporter (SEAP) activity, viability-corrected, relative to vehicle (fold change vs vehicle); higher = more activation of STING-IRF / NF-kB immune response reporter). Conditions: 10 µM; irradiation: 8 Gy/4 fr.
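Note: viability correction based on the alamar blue assay, with concentrations leaving 10% survival or less dropped.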

Row | SMILES | NF-kB reporter
1 | CNCCCC12CCC(c3ccccc31)c1ccccc12.Cl [Maprotiline HCl] | 1.15
2 | CN(C)CCc1c[nH]c2ccc(Cn3cncn3)cc12.O=C(O)c1ccccc1 [Rizatriptan Benzoate] | 0.819
3 | CCC(C)C(=O)OC1CC(O)C=C2C=CC(C)C(CCC(O)CC(O)CC(=O)[O-])C21.[Na+] (stereo not given) [Pravastatin sodium] | 0.784
4 | CCCCOc1cc(C(=O)OCCN(CC)CC)ccc1N.Cl [Oxybuprocaine HCl] | 0.694
5 | COc1cc(C)c(/C=C/C(C)=C/C=C/C(C)=C/C(=O)O)c(C)c1C [Acitretin] | 0.725
6 | CN1CCN(C2=Nc3cc(Cl)ccc3Nc3ccccc32)CC1 [Clozapine] | 0.782
7 | Cc1ccccc1C(OCCN(C)C)c1ccccc1.O=C(O)CC(O)(CC(=O)O)C(=O)O (stereo not given) [Orphenadrine Citrate] | 0.706
8 | COc1ccc(C(C)=O)c(O)c1 [Paeonol] | 1.07
9 | C[N+]1(C)C2CCC1CC(OC(=O)C(O)c1ccccc1)C2.[Br-] (stereo not given) [Homatropine Methylbromide] | 0.74
10 | Cl.Clc1cccc(Cl)c1NC1=NCCN1 [Clonidine HCl] | 0.734
11 | COc1ccc(/C=C/c2cc(OC)cc(=O)o2)cc1 [Yangonin] | 1.09
12 | CC(CCc1ccccc1)NCC(O)c1ccc(O)c(C(N)=O)c1.Cl (stereo not given) [Labetalol HCl] | 1.45
13 | [Cl][Cs] [Cesium chloride] | 0.749
14 | COc1cc2c(cc1O)CCC1C2CCC2(C)C(O)CCC12 (stereo not given) [2-Methoxyestradiol (2-MeOE2)] | 0.706
15 | Cc1cn(C2CC(N=[N+]=[N-])C(CO)O2)c(=O)[nH]c1=O (stereo not given) [Zidovudine] | 0.803
16 | COC(=O)C(c1ccccc1Cl)N1CCc2sccc2C1.O=S(=O)(O)O (stereo not given) [Clopidogrel] | 0.756
17 | Cc1c(C(C)C)c(=O)n(-c2ccccc2)n1C [Propyphenazone (4-Isopropylantipyrine)] | 0.805
18 | Cl.N[C@@H](CS)C(=O)O [L-Cysteine HCl] | 1.37
19 | O=c1[nH]cnc2c1ncn2C1CCC(CO)O1 (stereo not given) [Didanosine] | 0.549
20 | O=[N+]([O-])c1ccc(O)cc1 [4-Nitrophenol] | 0.861

Row | SMILES | NF-kB reporter
21 | CCCOc1ccc(C(=O)OCCN(CC)CC)cc1N.Cl [Proparacaine HCl] | 0.667
22 | CCN(CCO)CCCC(C)Nc1ccnc2cc(Cl)ccc12.O=S(=O)(O)O (stereo not given) [Hydroxychloroquine Sulfate] | 0.71
23 | O=S(=O)([O-])Oc1ccc(C(c2ccc(OS(=O)(=O)[O-])cc2)c2ccccn2)cc1.[Na+].[Na+] [Sodium Picosulfate] | 0.695
24 | CN/C(=C\[N+](=O)[O-])NCCSCc1ccc(CN(C)C)o1.Cl [Ranitidine Hydrochloride] | 0.843
25 | CC(=O)O.CC(C)CC(NC(=O)C(COC(C)(C)C)NC(=O)C(Cc1ccc(O)cc1)NC(=O)C(CO)NC(=O)C(Cc1c[nH]c2ccccc12)NC(=O)C(Cc1cnc[nH]1)NC(=O)C1CCC(=O)N1)C(=O)NC(CCCN=C(N)N)C(=O)N1CCCC1C(=O)NNC(N)=O (stereo not given) [Goserelin Acetate] | 0.844
26 | O=c1c(OC2OC(CO)C(O)C(O)C2O)c(-c2ccc(O)c(O)c2)oc2cc(O)cc(O)c12 (stereo not given) [Isoquercitrin] | 0.646
27 | CN/C(=C\[N+](=O)[O-])NCCSCc1ccc(CN(C)C)o1 [Ranitidine] | 0.78
28 | CNCCC=C1c2ccccc2CCc2ccccc21.Cl [Nortriptyline hydrochloride] | 0.498
29 | COC(=O)c1cc(OC)c2c(c1-c1c(CO)cc(OC)c3c1OCO3)OCO2 [Bicyclol] | 0.713
30 | CCn1cc(C(=O)O)c(=O)c2cc(F)c(N3CCNC(C)C3)c(F)c21 (stereo not given) [Lomefloxacin] | 0.796
31 | CC(C)(C)C(=O)C(Oc1ccc(Cl)cc1)n1ccnc1 (stereo not given) [Climbazole] | 0.873
32 | COc1cc2nc(N3CCN(C(=O)C4COc5ccccc5O4)CC3)nc(N)c2cc1OC.CS(=O)(=O)O (stereo not given) [Doxazosin Mesylate] | 0.683
33 | O=C(O)/C=C(/CC(=O)O)C(=O)O [cis-Aconitic acid] | 0.722
34 | CCn1cc(C(=O)O)c(=O)c2cc(F)c(N3CCN(C)CC3)cc21.CS(=O)(=O)O [Pefloxacin Mesylate] | 0.827
35 | CCCCc1nc(Cl)c(CO)n1Cc1ccc(-c2ccccc2-c2nnn[nH]2)cc1.[KH] [Losartan Potassium (DuP 753)] | 0.641
36 | C#CC1(O)CCC2C3CCC4=CCCCC4C3C(=C)CC21CC (stereo not given) [Desogestrel] | 0.6
37 | NC(=O)OCC(COC(N)=O)c1ccccc1 [Felbamate] | 0.729
38 | C1=Cc2ccccc2Nc2ccccc21 [Iminostilbene] | 0.557
39 | Cc1ncc(CO)c(CO)c1O.O=C1CCC(C(=O)O)N1 [Metadoxine] | 0.539
40 | CO/N=C(\C(=O)NC1C(=O)N2C(C(=O)[O-])=C(COC(N)=O)CSC12)c1ccco1.[Na+] (stereo not given) [Cefuroxime sodium] | 0.876
